This passage reports binding results from PMC3795252, “SLP-76 Sterile α Motif (SAM) and Individual H5 α Helix Mediate Oligomer Formation for Microclusters and T-cell Activation*” (The Journal of Biological Chemistry, 2013).

For experiment [1], the target named is T1, SLP-76 dN78 (SAM domain deletion mutant, residues 79–533), expressed in J14 Jurkat T-cells (human) (UniProt Q13094).
T1 sequence: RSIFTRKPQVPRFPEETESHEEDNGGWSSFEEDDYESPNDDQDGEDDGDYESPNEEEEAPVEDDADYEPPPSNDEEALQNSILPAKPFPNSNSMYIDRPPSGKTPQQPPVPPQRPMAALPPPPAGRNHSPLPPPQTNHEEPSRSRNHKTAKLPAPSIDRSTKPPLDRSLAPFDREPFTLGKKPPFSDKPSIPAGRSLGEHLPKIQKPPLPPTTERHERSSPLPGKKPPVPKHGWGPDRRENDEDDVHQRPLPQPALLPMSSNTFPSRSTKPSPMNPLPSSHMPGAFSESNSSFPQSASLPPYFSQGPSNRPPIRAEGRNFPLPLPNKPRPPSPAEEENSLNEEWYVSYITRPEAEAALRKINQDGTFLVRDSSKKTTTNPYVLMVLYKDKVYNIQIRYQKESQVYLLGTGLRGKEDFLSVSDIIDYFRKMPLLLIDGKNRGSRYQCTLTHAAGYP
In words: co-IP; J14 cells transfected with SLP-76 WT or dN78; isotype control or anti-CD3 ligation; precipitation with anti-HA, blot with anti-GADS, anti-ADAP and anti-SLP-76.

Experiment [2] addresses T2, SLP-76 wild type, full length, expressed in J14 Jurkat T-cells (human), Q13094.
T2 chain: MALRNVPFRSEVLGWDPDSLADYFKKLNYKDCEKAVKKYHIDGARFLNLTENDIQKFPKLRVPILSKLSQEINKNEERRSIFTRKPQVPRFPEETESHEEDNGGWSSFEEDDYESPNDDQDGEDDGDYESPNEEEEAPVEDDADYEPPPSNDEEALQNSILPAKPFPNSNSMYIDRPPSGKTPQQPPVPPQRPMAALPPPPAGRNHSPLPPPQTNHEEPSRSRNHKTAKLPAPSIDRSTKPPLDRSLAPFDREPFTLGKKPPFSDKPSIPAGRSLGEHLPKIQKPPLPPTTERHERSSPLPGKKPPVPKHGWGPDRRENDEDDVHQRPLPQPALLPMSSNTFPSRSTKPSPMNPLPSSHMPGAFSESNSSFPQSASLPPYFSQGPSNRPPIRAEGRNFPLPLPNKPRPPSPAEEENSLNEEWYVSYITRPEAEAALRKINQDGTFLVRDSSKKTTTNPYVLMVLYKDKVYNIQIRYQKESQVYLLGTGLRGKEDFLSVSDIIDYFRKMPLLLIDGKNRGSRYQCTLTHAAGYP
Described as above. The settings on record: remark: other sources report otherwise.

Experiment [3] addresses SLP-76 SAM domain lacking the H5 helix (residues 1–61), recombinant (human) (UniProt Q13094). Description: MST; 10 nM NT-647-labelled protein titrated with the same protein unlabelled (0–90.5 μM, 1:1 dilutions); Monolith NT.115; 25 °C; 10 mM HEPES pH 7.5, 500 mM NaCl, 0.5 mM TCEP, 0.05% Tween 20; constant is of monomer to dimer; both purified.
Experiment [4] deals with T1, SLP-76 dN78 (SAM domain deletion mutant, residues 79–533), expressed in J14 Jurkat T-cells (human). In words: co-IP; J14 cells co-transfected with a His6-tagged and an EYFP-tagged copy; anti-CD3 ligation (2–15 min, 0.5–5 μg/ml); lysis, precipitation with anti-His, blot with anti-SLP-76.
For experiment [5], the target named is T3, SLP-76 dN57 (lacking SAM helices H1–H4, residues 58–533), expressed in J14 Jurkat T-cells (human) (UniProt Q13094).
T3 sequence: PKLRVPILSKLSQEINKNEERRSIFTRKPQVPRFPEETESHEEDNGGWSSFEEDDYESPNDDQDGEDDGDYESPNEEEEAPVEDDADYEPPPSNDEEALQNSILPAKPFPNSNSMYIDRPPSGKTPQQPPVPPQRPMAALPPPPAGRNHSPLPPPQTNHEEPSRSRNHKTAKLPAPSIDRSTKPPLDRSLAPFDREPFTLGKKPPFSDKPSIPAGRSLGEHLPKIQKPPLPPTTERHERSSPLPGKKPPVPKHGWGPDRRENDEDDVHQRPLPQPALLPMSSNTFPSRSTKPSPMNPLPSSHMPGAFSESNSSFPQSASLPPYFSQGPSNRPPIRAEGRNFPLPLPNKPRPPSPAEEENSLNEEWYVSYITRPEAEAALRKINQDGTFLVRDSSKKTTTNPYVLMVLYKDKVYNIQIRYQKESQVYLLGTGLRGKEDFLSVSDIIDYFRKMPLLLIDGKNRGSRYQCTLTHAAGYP
The description is as above.

In experiment [6] the target is SLP-76 wild type, full length, expressed in J14 Jurkat T-cells (human) (UniProt Q13094). The description is as above.
Experiment [7] has the same target. In words: co-IP; J14 cells co-transfected with an EYFP-tagged and an HA-tagged copy; resting or anti-CD3 ligation for 5 min; precipitation with anti-GFP, blot with anti-GFP or anti-HA.
Experiment [8] shares this target. Description: co-IP; as a3, but resting cells (isotype control instead of anti-CD3); precipitation with anti-His, blot with anti-SLP-76.

Results are given in words; binding and its absence hold for the method and conditions named. For some of these results: Binding seen in cells or lysates may run through a third protein. Some results given as binding are weak or reduced against the parent protein; the word gives no strength.

B1: ADAP (adhesion and degranulation promoting adapter protein) (protein, UniProt O15117 1-783)
chain: MAKYNTGGNPTEDVSVNSRPFRVTGPNSSSGIQARKNLFNNQGNASPPAGPSNVPKFGSPKPPVAVKPSSEEKPDKEPKPPFLKPTGAGQRFGTPASLTTRDPEAKVGFLKPVGPKPINLPKEDSKPTFPWPPGNKPSLHSVNQDHDLKPLGPKSGPTPPTSENEQKQAFPKLTGVKGKFMSASQDLEPKPLFPKPAFGQKPPLSTENSHEDESPMKNVSSSKGSPAPLGVRSKSGPLKPAREDSENKDHAGEISSLPFPGVVLKPAASRGGPGLSKNGEEKKEDRKIDAAKNTFQSKINQEELASGTPPARFPKAPSKLTVGGPWGQSQEKEKGDKNSATPKQKPLPPLFTLGPPPPKPNRPPNVDLTKFHKTSSGNSTSKGQTSYSTTSLPPPPPSHPASQPPLPASHPSQPPVPSLPPRNIKPPFDLKSPVNEDNQDGVTHSDGAGNLDEEQDSEGETYEDIEASKEREKKREKEEKKRLELEKKEQKEKEKKEQEIKKKFKLTGPIQVIHLAKACCDVKGGKNELSFKQGEQIEIIRITDNPEGKWLGRTARGSYGYIKTTAVEIDYDSLKLKKDSLGAPSRPIEDDQEVYDDVAEQDDISSHSQSGSGGIFPPPPDDDIYDGIEEEDADDGFPAPPKQLDMGDEVYDDVDTSDFPVSSAEMSQGTNVGKAKTEEKDLKKLKKQEKEEKDFRKKFKYDGEIRVLYSTKVTTSITSKKWGTRDLQVKPGESLEVIQTTDDTKVLCRNEEGKYGYVLRSYLADNDGEIYDDIADGCIYDND
In the case of B1, the binding result in experiment [1] is on record as “binds”.

B2: ADAP (adhesion and degranulation promoting adapter protein), O15117 1-783 (protein)
chain: MAKYNTGGNPTEDVSVNSRPFRVTGPNSSSGIQARKNLFNNQGNASPPAGPSNVPKFGSPKPPVAVKPSSEEKPDKEPKPPFLKPTGAGQRFGTPASLTTRDPEAKVGFLKPVGPKPINLPKEDSKPTFPWPPGNKPSLHSVNQDHDLKPLGPKSGPTPPTSENEQKQAFPKLTGVKGKFMSASQDLEPKPLFPKPAFGQKPPLSTENSHEDESPMKNVSSSKGSPAPLGVRSKSGPLKPAREDSENKDHAGEISSLPFPGVVLKPAASRGGPGLSKNGEEKKEDRKIDAAKNTFQSKINQEELASGTPPARFPKAPSKLTVGGPWGQSQEKEKGDKNSATPKQKPLPPLFTLGPPPPKPNRPPNVDLTKFHKTSSGNSTSKGQTSYSTTSLPPPPPSHPASQPPLPASHPSQPPVPSLPPRNIKPPFDLKSPVNEDNQDGVTHSDGAGNLDEEQDSEGETYEDIEASKEREKKREKEEKKRLELEKKEQKEKEKKEQEIKKKFKLTGPIQVIHLAKACCDVKGGKNELSFKQGEQIEIIRITDNPEGKWLGRTARGSYGYIKTTAVEIDYDSLKLKKDSLGAPSRPIEDDQEVYDDVAEQDDISSHSQSGSGGIFPPPPDDDIYDGIEEEDADDGFPAPPKQLDMGDEVYDDVDTSDFPVSSAEMSQGTNVGKAKTEEKDLKKLKKQEKEEKDFRKKFKYDGEIRVLYSTKVTTSITSKKWGTRDLQVKPGESLEVIQTTDDTKVLCRNEEGKYGYVLRSYLADNDGEIYDDIADGCIYDND
On to B2, for which, in experiment [2], the binding entry was “binds”.

B3: SLP-76 SAM domain lacking the H5 helix (residues 1–61), recombinant (domain or fragment, UniProt Q13094 1-61)
chain: MALRNVPFRSEVLGWDPDSLADYFKKLNYKDCEKAVKKYHIDGARFLNLTENDIQKFPKLR
Take B3: the binding entry in experiment [3] was “no binding”.

B4: SLP-76 dN78 (SAM domain deletion mutant, residues 79–533), expressed in J14 Jurkat T-cells (domain or fragment, UniProt Q13094 79-533)
chain: RSIFTRKPQVPRFPEETESHEEDNGGWSSFEEDDYESPNDDQDGEDDGDYESPNEEEEAPVEDDADYEPPPSNDEEALQNSILPAKPFPNSNSMYIDRPPSGKTPQQPPVPPQRPMAALPPPPAGRNHSPLPPPQTNHEEPSRSRNHKTAKLPAPSIDRSTKPPLDRSLAPFDREPFTLGKKPPFSDKPSIPAGRSLGEHLPKIQKPPLPPTTERHERSSPLPGKKPPVPKHGWGPDRRENDEDDVHQRPLPQPALLPMSSNTFPSRSTKPSPMNPLPSSHMPGAFSESNSSFPQSASLPPYFSQGPSNRPPIRAEGRNFPLPLPNKPRPPSPAEEENSLNEEWYVSYITRPEAEAALRKINQDGTFLVRDSSKKTTTNPYVLMVLYKDKVYNIQIRYQKESQVYLLGTGLRGKEDFLSVSDIIDYFRKMPLLLIDGKNRGSRYQCTLTHAAGYP
Regarding B4, the binding result in experiment [4] was “no binding”.

B5: SLP-76 dN57 (lacking SAM helices H1–H4, residues 58–533), expressed in J14 Jurkat T-cells (domain or fragment, UniProt Q13094 58-533)
chain: PKLRVPILSKLSQEINKNEERRSIFTRKPQVPRFPEETESHEEDNGGWSSFEEDDYESPNDDQDGEDDGDYESPNEEEEAPVEDDADYEPPPSNDEEALQNSILPAKPFPNSNSMYIDRPPSGKTPQQPPVPPQRPMAALPPPPAGRNHSPLPPPQTNHEEPSRSRNHKTAKLPAPSIDRSTKPPLDRSLAPFDREPFTLGKKPPFSDKPSIPAGRSLGEHLPKIQKPPLPPTTERHERSSPLPGKKPPVPKHGWGPDRRENDEDDVHQRPLPQPALLPMSSNTFPSRSTKPSPMNPLPSSHMPGAFSESNSSFPQSASLPPYFSQGPSNRPPIRAEGRNFPLPLPNKPRPPSPAEEENSLNEEWYVSYITRPEAEAALRKINQDGTFLVRDSSKKTTTNPYVLMVLYKDKVYNIQIRYQKESQVYLLGTGLRGKEDFLSVSDIIDYFRKMPLLLIDGKNRGSRYQCTLTHAAGYP
B5: the binding entry in experiment [5] is “binds”.

B6: SLP-76 wild type, full length, expressed in J14 Jurkat T-cells (protein, UniProt Q13094 1-533)
chain: MALRNVPFRSEVLGWDPDSLADYFKKLNYKDCEKAVKKYHIDGARFLNLTENDIQKFPKLRVPILSKLSQEINKNEERRSIFTRKPQVPRFPEETESHEEDNGGWSSFEEDDYESPNDDQDGEDDGDYESPNEEEEAPVEDDADYEPPPSNDEEALQNSILPAKPFPNSNSMYIDRPPSGKTPQQPPVPPQRPMAALPPPPAGRNHSPLPPPQTNHEEPSRSRNHKTAKLPAPSIDRSTKPPLDRSLAPFDREPFTLGKKPPFSDKPSIPAGRSLGEHLPKIQKPPLPPTTERHERSSPLPGKKPPVPKHGWGPDRRENDEDDVHQRPLPQPALLPMSSNTFPSRSTKPSPMNPLPSSHMPGAFSESNSSFPQSASLPPYFSQGPSNRPPIRAEGRNFPLPLPNKPRPPSPAEEENSLNEEWYVSYITRPEAEAALRKINQDGTFLVRDSSKKTTTNPYVLMVLYKDKVYNIQIRYQKESQVYLLGTGLRGKEDFLSVSDIIDYFRKMPLLLIDGKNRGSRYQCTLTHAAGYP
On to B6, for which the binding result in experiment [6] was “binds”; in experiment [4], “no binding”; in experiment [5] it was “binds”; in experiment [7], “binds”; in experiment [8], “binds weakly”.
